{
  "source": "the supplement of paper PMC8728848",
  "assay_in_all_cases": "glycan array binding signal (z-score within array); higher = stronger binding",
  "conditions_in_all_cases": "glycan notation: IUPAC condensed, linker removed",
  "key": {"[1]": {"molecular_target": "Neu5Ac(a2-3)Gal(b1-4)GlcNAc(b1-2)[Neu5Ac(a2-3)Gal(b1-4)GlcNAc(b1-4)]Man(a1-3)[GlcNAc(b1-4)][Neu5Ac(a2-3)Gal(b1-4)GlcNAc(b1-4)Man(a1-6)]Man(b1-4)GlcNAc(b1-4)GlcNAc", "outline": "(§1)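 Glycan array data were curated from 3228 arrays in the Consortium for Functional Glycomics database and kept only where the protein sequence was available. Glycan names were converted to IUPAC-condensed notation, and columns mapping to the same glycan were averaged. The binding signal is a within-array Z-score, averaged across arrays of the same protein sequence at different concentrations or buffers and across linkers. Negative Z-scores can be read as non-binding.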"}, "[2]": {"molecular_target": "Neu5Ac(a2-3)Gal(b1-4)GlcNAc(b1-2)[Neu5Ac(a2-3)Gal(b1-4)GlcNAc(b1-6)]Man(a1-6)[Neu5Ac(a2-3)Gal(b1-4)GlcNAc(b1-2)Man(a1-3)]Man(b1-4)GlcNAc(b1-4)GlcNAc", "outline": "as §1"}, "[3]": {"molecular_target": "Neu5Ac(a2-3)Gal(b1-4)GlcNAc(b1-2)[Neu5Ac(a2-3)Gal(b1-4)GlcNAc(b1-6)]Man(a1-6)[Neu5Ac(a2-3)Gal(b1-4)GlcNAc(b1-2)Man(a1-3)][GlcNAc(b1-4)]Man(b1-4)GlcNAc(b1-4)GlcNAc", "outline": "as §1"}, "[4]": {"molecular_target": "Neu5Ac(a2-3)Gal(b1-4)GlcNAc(b1-3)Gal", "outline": "as §1"}, "[5]": {"molecular_target": "Neu5Ac(a2-3)Gal(b1-4)GlcNAc(b1-3)Gal(b1-3)GlcNAc", "outline": "as §1"}, "[6]": {"molecular_target": "Neu5Ac(a2-3)Gal(b1-4)GlcNAc(b1-3)Gal(b1-4)GlcNAc", "outline": "as §1"}, "[7]": {"molecular_target": "Neu5Ac(a2-3)Gal(b1-4)GlcNAc(b1-3)Gal(b1-4)GlcNAc(b1-2)Man(a1-3)[Neu5Ac(a2-3)Gal(b1-4)GlcNAc(b1-3)Gal(b1-4)GlcNAc(b1-2)Man(a1-6)]Man(b1-4)GlcNAc(b1-4)GlcNAc", "outline": "as §1"}, "[8]": {"molecular_target": "Neu5Ac(a2-3)Gal(b1-4)GlcNAc(b1-3)Gal(b1-4)GlcNAc(b1-3)Gal(b1-4)GlcNAc", "outline": "as §1"}, "[9]": {"molecular_target": "Neu5Ac(a2-3)Gal(b1-4)GlcNAc(b1-3)Gal(b1-4)GlcNAc(b1-3)Gal(b1-4)GlcNAc(b1-2)Man(a1-3)[Neu5Ac(a2-3)Gal(b1-4)GlcNAc(b1-3)Gal(b1-4)GlcNAc(b1-3)Gal(b1-4)GlcNAc(b1-2)Man(a1-6)]GalNAc", "outline": "as §1"}, "[10]": {"molecular_target": "Neu5Ac(a2-3)Gal(b1-4)GlcNAc(b1-3)Gal(b1-4)GlcNAc(b1-3)GalNAc", "outline": "as §1"}, "[11]": {"molecular_target": "Neu5Ac(a2-3)Gal(b1-4)GlcNAc(b1-3)Gal(b1-4)GlcNAc(b1-3)[Neu5Ac(a2-3)Gal(b1-4)GlcNAc(b1-3)Gal(b1-4)GlcNAc(b1-6)]GalNAc", "outline": "as §1"}, "[12]": {"molecular_target": "Neu5Ac(a2-3)Gal(b1-4)GlcNAc(b1-3)Gal(b1-4)GlcNAc(b1-6)[Gal(b1-3)]GalNAc", "outline": "as §1"}, "[13]": {"molecular_target": "Neu5Ac(a2-3)Gal(b1-4)GlcNAc(b1-3)Gal(b1-4)[Fuc(a1-3)]GlcNAc", "outline": "as §1"}, "[14]": {"molecular_target": "Neu5Ac(a2-3)Gal(b1-4)GlcNAc(b1-3)GalNAc", "outline": "as §1"}, "[15]": {"molecular_target": "Neu5Ac(a2-3)Gal(b1-4)GlcNAc(b1-3)[Neu5Ac(a2-3)Gal(b1-4)GlcNAc(b1-6)]GalNAc", "outline": "as §1"}, "[16]": {"molecular_target": "Neu5Ac(a2-3)Gal(b1-4)GlcNAc(b1-6)GalNAc", "outline": "as §1"}, "[17]": {"molecular_target": "Neu5Ac(a2-3)Gal(b1-4)GlcNAc(b1-6)[Gal(b1-3)]GalNAc", "outline": "as §1"}, "[18]": {"molecular_target": "Neu5Ac(a2-3)Gal(b1-4)GlcNAc(b1-6)[Neu5Ac(a2-3)Gal(b1-3)]GalNAc", "outline": "as §1"}, "[19]": {"molecular_target": "Neu5Ac(a2-3)Gal(b1-4)GlcNAc6S", "outline": "as §1"}, "[20]": {"molecular_target": "Neu5Ac(a2-3)Gal(b1-4)[Fuc(a1-3)]GlcNAc", "outline": "as §1"}, "[21]": {"molecular_target": "Neu5Ac(a2-3)Gal(b1-4)[Fuc(a1-3)]GlcNAc(b1-2)Man", "outline": "as §1"}, "[22]": {"molecular_target": "Neu5Ac(a2-3)Gal(b1-4)[Fuc(a1-3)]GlcNAc(b1-3)Gal", "outline": "as §1"}, "[23]": {"molecular_target": "Neu5Ac(a2-3)Gal(b1-4)[Fuc(a1-3)]GlcNAc(b1-3)Gal(b1-4)GlcNAc", "outline": "as §1"}, "[24]": {"molecular_target": "Neu5Ac(a2-3)Gal(b1-4)[Fuc(a1-3)]GlcNAc(b1-3)Gal(b1-4)[Fuc(a1-3)]GlcNAc(b1-3)Gal(b1-4)[Fuc(a1-3)]GlcNAc", "outline": "as §1"}, "[25]": {"molecular_target": "Neu5Ac(a2-3)Gal(b1-4)[Fuc(a1-3)]GlcNAc(b1-3)GalNAc", "outline": "as §1"}, "[26]": {"molecular_target": "Neu5Ac(a2-3)Gal(b1-4)[Fuc(a1-3)]GlcNAc(b1-6)[Gal(b1-3)]GalNAc", "outline": "as §1"}, "[27]": {"molecular_target": "Neu5Ac(a2-3)Gal(b1-4)[Fuc(a1-3)]GlcNAc(b1-6)[Neu5Ac(a2-3)Gal(b1-3)]GalNAc", "outline": "as §1"}, "[28]": {"molecular_target": "Neu5Ac(a2-3)Gal(b1-4)[Fuc(a1-3)]GlcNAc6S", "outline": "as §1"}, "[29]": {"molecular_target": "Neu5Ac(a2-3)Gal6S(b1-4)GlcNAc", "outline": "as §1"}, "[30]": {"molecular_target": "Neu5Ac(a2-3)Gal6S(b1-4)[Fuc(a1-3)]GlcNAc", "outline": "as §1"}, "Neu5Ac(a2-3)GalNAc": {"molecular_target": "Neu5Ac(a2-3)GalNAc", "outline": "as §1"}, "[31]": {"molecular_target": "Neu5Ac(a2-3)GalNAc(b1-4)GlcNAc", "outline": "as §1"}, "[32]": {"molecular_target": "Neu5Ac(a2-3)[GalNAc(b1-4)]Gal(b1-4)Glc", "outline": "as §1"}, "[33]": {"molecular_target": "Neu5Ac(a2-3)[GalNAc(b1-4)]Gal(b1-4)GlcNAc", "outline": "as §1"}, "[34]": {"molecular_target": "Neu5Ac(a2-3)[GalNAc(b1-4)]Gal(b1-4)GlcNAc(b1-3)GalNAc", "outline": "as §1"}, "[35]": {"molecular_target": "Neu5Ac(a2-3)[Neu5Ac(a2-6)]GalNAc", "outline": "as §1"}, "Neu5Ac(a2-6)Gal": {"molecular_target": "Neu5Ac(a2-6)Gal", "outline": "as §1"}},
  "note": "This is one part of the list.",
  "data": [
    {"binder": "SP16663B-bot-321-25-321 (Bacteroides ovatus) (protein) DDDDEVTMNSKFYLSTKVFPVDSYEASLSVILKDNSVVVNELQPNYRFVACATERLSKDVKITADSDDNLVSAYNKANDTEYNILPAENYSFTNKTVTIENGESVSGDSIKIELLNVGSLTTEGGYLLPVTISSIEGNNLDALSSNRGVVYLKIQNIHVNVESGQPAEGTLIADRSGWTVKVAPTTRGDAKNLIDGTNSDVARDGGAEYWLTVDIGKVQTLTGIRNKCYASSYSPTAVEVFTSSDGAKWKSIGAVTISKSGTQYIKFSKAVETRYLKYYVKQGPNTVSLTEFDLYAK", "values": [
      {"measurement": "glycan array binding signal (z-score)", "setting": "[1]", "value": -0.146},
      {"measurement": "glycan array binding signal (z-score)", "setting": "[2]", "value": -0.278},
      {"measurement": "glycan array binding signal (z-score)", "setting": "[3]", "value": 0.354},
      {"measurement": "glycan array binding signal (z-score)", "setting": "[4]", "value": -0.206},
      {"measurement": "glycan array binding signal (z-score)", "setting": "[5]", "value": 0.08},
      {"measurement": "glycan array binding signal (z-score)", "setting": "[6]", "value": -0.56},
      {"measurement": "glycan array binding signal (z-score)", "setting": "[7]", "value": -0.099},
      {"measurement": "glycan array binding signal (z-score)", "setting": "[8]", "value": 0.857},
      {"measurement": "glycan array binding signal (z-score)", "setting": "[9]", "value": 0.632},
      {"measurement": "glycan array binding signal (z-score)", "setting": "[10]", "value": -0.725},
      {"measurement": "glycan array binding signal (z-score)", "setting": "[11]", "value": -0.217},
      {"measurement": "glycan array binding signal (z-score)", "setting": "[12]", "value": -0.132},
      {"measurement": "glycan array binding signal (z-score)", "setting": "[13]", "value": 0.326},
      {"measurement": "glycan array binding signal (z-score)", "setting": "[14]", "value": 0.44},
      {"measurement": "glycan array binding signal (z-score)", "setting": "[15]", "value": -0.81},
      {"measurement": "glycan array binding signal (z-score)", "setting": "[16]", "value": 0.427},
      {"measurement": "glycan array binding signal (z-score)", "setting": "[17]", "value": -0.328},
      {"measurement": "glycan array binding signal (z-score)", "setting": "[18]", "value": -0.067},
      {"measurement": "glycan array binding signal (z-score)", "setting": "[19]", "value": 0.308},
      {"measurement": "glycan array binding signal (z-score)", "setting": "[20]", "value": -0.258},
      {"measurement": "glycan array binding signal (z-score)", "setting": "[21]", "value": -0.785},
      {"measurement": "glycan array binding signal (z-score)", "setting": "[22]", "value": -0.185},
      {"measurement": "glycan array binding signal (z-score)", "setting": "[23]", "value": 0.234},
      {"measurement": "glycan array binding signal (z-score)", "setting": "[24]", "value": 0.06},
      {"measurement": "glycan array binding signal (z-score)", "setting": "[25]", "value": 0.75},
      {"measurement": "glycan array binding signal (z-score)", "setting": "[26]", "value": 0.154},
      {"measurement": "glycan array binding signal (z-score)", "setting": "[27]", "value": 0.471},
      {"measurement": "glycan array binding signal (z-score)", "setting": "[28]", "value": -0.406},
      {"measurement": "glycan array binding signal (z-score)", "setting": "[29]", "value": 0.161},
      {"measurement": "glycan array binding signal (z-score)", "setting": "[30]", "value": -0.592},
      {"measurement": "glycan array binding signal (z-score)", "setting": "Neu5Ac(a2-3)GalNAc", "value": 0.236},
      {"measurement": "glycan array binding signal (z-score)", "setting": "[31]", "value": -0.562},
      {"measurement": "glycan array binding signal (z-score)", "setting": "[32]", "value": -0.278},
      {"measurement": "glycan array binding signal (z-score)", "setting": "[33]", "value": -0.457},
      {"measurement": "glycan array binding signal (z-score)", "setting": "[34]", "value": 0.96},
      {"measurement": "glycan array binding signal (z-score)", "setting": "[35]", "value": -0.057},
      {"measurement": "glycan array binding signal (z-score)", "setting": "Neu5Ac(a2-6)Gal", "value": 0.533}
    ]}
  ]
}
